The text below walks through data of EP3072511A1, “The medical use of 3-aryl substituted 1-indanones” (Centrum Badan Molekularnych I Makromolekularnych Polskiej …, priority 2013, dated 2016).

In general, IC50 refers to the midpoint of a concentration-inhibition curve.

The subject of this experiment is cell line K562 (chronic myelogenous leukemia, human). The experiment can be described thus: MTT cytotoxicity test, K562 cells. To be noted: K562, 48 h, read-out: K562 IC50 after 48h.

As to `COP(=O)(OC)C1C(=O)c2cc3c(cc2C1c1ccccc1)OCO3` (centres unmarked) [Compound 1a, 2-phosphoryl-3-phenyl substituted 1-indanone], the IC50 came to 100 µM.

With `COc1cc(OC)c2c(c1)C(=O)CC2c1ccc(Br)cc1` (centres unmarked) [Compound 3a, 3-(para-bromophenyl) substituted 1-indanone], the IC50 came to 10 µM.
